Reference: the supplement of paper PMC6089552
Screen size: about 3,200 compounds; about 300 (9.4%) showed activity. The list shows a part of the results, in another mix than the full data.

Test system: A673/TR/shEF
Test: cell viability (LOESS-normalised, relative to median of negative controls) (log2 ratio); higher = more viable cells (less compound effect), active = hit call of the paper (over 3 MAD below the median)
Settings: treatment time: 72 h
Method in brief: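 A673/TR/shEF Ewing sarcoma cells were plated at 1,500 per well in 384-well plates and cultured with or without doxycycline, added 24 h before compounds, to induce EWS-FLI1 shRNA knockdown. Library compounds at two or more concentrations, alongside DMSO controls, were applied for three days. Cell viability was measured by CellTiter-Glo luminescence on an Envision reader. Readings were LOESS-corrected per plate, divided by the median of negative controls and log2-transformed, and hits were wells lying at least three median absolute deviations from the median of all screened wells.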

[1] = 0.25 µM, library screen: screen2, EWS-FLI1 expression: high (no doxycycline)
[2] = 0.25 µM, library screen: screen2, EWS-FLI1 expression: low (doxycycline-induced shRNA knockdown)
[3] = 2.5 µM, library screen: screen2, EWS-FLI1 expression: high (no doxycycline)
[4] = 2.5 µM, library screen: screen2, EWS-FLI1 expression: low (doxycycline-induced shRNA knockdown)
[5] = 0.25 µM, library screen: screen1, EWS-FLI1 expression: high (no doxycycline)
[6] = 0.25 µM, library screen: screen1, EWS-FLI1 expression: low (doxycycline-induced shRNA knockdown)
[7] = 2.5 µM, library screen: screen1, EWS-FLI1 expression: high (no doxycycline)
[8] = 2.5 µM, library screen: screen1, EWS-FLI1 expression: low (doxycycline-induced shRNA knockdown)
[9] = 0.103 µM, library screen: screen3, EWS-FLI1 expression: high (no doxycycline)
[10] = 0.103 µM, library screen: screen3, EWS-FLI1 expression: low (doxycycline-induced shRNA knockdown)
[11] = 0.308 µM, library screen: screen3, EWS-FLI1 expression: high (no doxycycline)
[12] = 0.308 µM, library screen: screen3, EWS-FLI1 expression: low (doxycycline-induced shRNA knockdown)
[13] = 0.926 µM, library screen: screen3, EWS-FLI1 expression: high (no doxycycline)
[14] = 0.926 µM, library screen: screen3, EWS-FLI1 expression: low (doxycycline-induced shRNA knockdown)
[15] = 2.8 µM, library screen: screen3, EWS-FLI1 expression: high (no doxycycline)
[16] = 2.8 µM, library screen: screen3, EWS-FLI1 expression: low (doxycycline-induced shRNA knockdown)
[17] = 8.3 µM, library screen: screen3, EWS-FLI1 expression: high (no doxycycline)
[18] = 8.3 µM, library screen: screen3, EWS-FLI1 expression: low (doxycycline-induced shRNA knockdown)
[19] = 25 µM, library screen: screen3, EWS-FLI1 expression: high (no doxycycline)
[20] = 25 µM, library screen: screen3, EWS-FLI1 expression: low (doxycycline-induced shRNA knockdown)

Compound: Cc1ccc(OC[C@H](O)[C@H](C)NC(C)C)c2c1CCC2
- cell viability (log2) [1]: inactive: 0.253
- cell viability (log2) [2]: inactive: 0.0742
- cell viability (log2) [3]: inactive: 0.147
- cell viability (log2) [4]: inactive: 0.115

Compound: NCCCC[C@H](N[C@@H](CCc1ccccc1)C(=O)O)C(=O)N1CCC[C@H]1C(=O)O
- cell viability (log2) [5]: inactive: 0.105
- cell viability (log2) [6]: inactive: 0.00454
- cell viability (log2) [7]: inactive: 0.139
- cell viability (log2) [8]: inactive: -0.104

Compound: CC(C)(C)NC[C@H](O)COc1nsnc1N1CCOCC1
- cell viability (log2) [5]: inactive: 0.0613
- cell viability (log2) [6]: inactive: 0.0754
- cell viability (log2) [7]: inactive: 0.179
- cell viability (log2) [8]: inactive: 0.0567

Compound: C[C@]12CCC(=O)C=C1CC[C@@H]1[C@@H]2[C@@H](O)C[C@@]2(C)[C@H]1CC[C@]2(O)C(=O)COC(=O)CCC(=O)O
- cell viability (log2) [5]: inactive: 0.0211
- cell viability (log2) [6]: inactive: 0.0324
- cell viability (log2) [7]: inactive: 0.15
- cell viability (log2) [8]: inactive: -0.198

Compound: Cc1ccc(C(=O)Nc2ccc(CN3CCN(C)CC3)c(C(F)(F)F)c2)cc1C#Cc1cnc2cccnn12
- cell viability (log2) [9]: inactive: -0.0141
- cell viability (log2) [10]: inactive: 0.111
- cell viability (log2) [11]: inactive: -0.0138
- cell viability (log2) [12]: inactive: 0.169
- cell viability (log2) [13]: active: -0.202
- cell viability (log2) [14]: 0.218
- cell viability (log2) [15]: active: -0.252
- cell viability (log2) [16]: inactive: 0.093
- cell viability (log2) [17]: active: -0.655
- cell viability (log2) [18]: active: -0.442
- cell viability (log2) [19]: active: -1.59
- cell viability (log2) [20]: active: -1.35

Compound: CCCCN1CCC(COC(=O)c2cc(Cl)c(N)c3c2OCCO3)CC1
- cell viability (log2) [1]: active: -0.151

Compound: Oc1ccccc1O
- cell viability (log2) [1]: inactive: 0.122
- cell viability (log2) [2]: inactive: 0.0415
- cell viability (log2) [3]: inactive: 0.0646
- cell viability (log2) [4]: inactive: 0.111

Compound: COc1cc(OC)c(OC)cc1CN1CCN(Cc2cccnc2)CC1
- cell viability (log2) [5]: inactive: 0.0812
- cell viability (log2) [6]: inactive: 0.0446
- cell viability (log2) [7]: inactive: 0.193
- cell viability (log2) [8]: inactive: 0.00403

Compound: FC(F)(F)c1ccccc1-n1ccnc1
- cell viability (log2) [1]: inactive: 0.165
- cell viability (log2) [2]: inactive: 0.0142
- cell viability (log2) [3]: inactive: 0.122
- cell viability (log2) [4]: inactive: 0.0499

Compound: O=C(Cc1cccs1)N[C@@H]1C(=O)N2C(C(=O)[O-])=C(C[n+]3ccccc3)CS[C@H]12
- cell viability (log2) [5]: inactive: 0.0672
- cell viability (log2) [6]: inactive: 0.063
- cell viability (log2) [7]: inactive: 0.0813
- cell viability (log2) [8]: inactive: 0.141

Compound: CCCCOC(=O)NS(=O)(=O)c1sc(CC(C)C)cc1-c1ccc(Cn2c(CC)nc3c(C)cc(C)nc32)cc1
- cell viability (log2) [1]: inactive: 0.0975
- cell viability (log2) [2]: inactive: 0.0722
- cell viability (log2) [3]: inactive: 0.0232
- cell viability (log2) [4]: inactive: 0.0472

Compound: COc1cc(-c2coc3cc(O)c(OC)c(O)c3c2=O)cc(O)c1OC
- cell viability (log2) [5]: inactive: 0.0734
- cell viability (log2) [6]: inactive: 0.118
- cell viability (log2) [7]: inactive: 0.0492
- cell viability (log2) [8]: inactive: 0.148

Compound: CCOC(=O)OC(C)OC(=O)[C@@H]1N2C(=O)[C@@H](NC(=O)[C@H](N)c3ccccc3)[C@H]2SC1(C)C (some centres not stated)
- cell viability (log2) [5]: inactive: 0.122
- cell viability (log2) [6]: inactive: 0.134
- cell viability (log2) [7]: inactive: 0.137
- cell viability (log2) [8]: inactive: 0.183

Compound: COc1cc2c(cc1OC)-c1cc(=Nc3c(C)cc(C)cc3C)n(C)c(=O)n1CC2
- cell viability (log2) [1]: inactive: 0.196
- cell viability (log2) [2]: inactive: 0.0633
- cell viability (log2) [3]: inactive: 0.231
- cell viability (log2) [4]: inactive: 0.0686

Compound: Cc1cccc(-n2ncc3c(N4CCOCC4)ncnc32)c1
- cell viability (log2) [5]: inactive: 0.0669
- cell viability (log2) [6]: inactive: 0.0823
- cell viability (log2) [7]: inactive: 0.13
- cell viability (log2) [8]: inactive: 0.108

Compound: CC(C)CCC[C@@H](C)[C@H]1CC[C@H]2[C@@H]3CC[C@H]4C[C@H](O)CC[C@]4(C)[C@H]3CC[C@]12C
- cell viability (log2) [5]: inactive: 0.14
- cell viability (log2) [6]: inactive: 0.0986
- cell viability (log2) [7]: inactive: 0.118
- cell viability (log2) [8]: inactive: 0.0759

Compound: CCOC(=O)[C@H](CCc1ccccc1)N[C@H]1CCc2ccccc2N(CC(=O)O)C1=O
- cell viability (log2) [9]: inactive: 0.00565
- cell viability (log2) [10]: inactive: 0.0483
- cell viability (log2) [11]: inactive: -0.00821
- cell viability (log2) [12]: inactive: 0.00175
- cell viability (log2) [13]: inactive: 0.0846
- cell viability (log2) [14]: inactive: 0.0215
- cell viability (log2) [15]: inactive: 0.0825
- cell viability (log2) [16]: inactive: 0.0572
- cell viability (log2) [17]: inactive: 0.0213
- cell viability (log2) [18]: inactive: 0.0268
- cell viability (log2) [19]: inactive: 0.0743
- cell viability (log2) [20]: inactive: 0.12

Compound: O=C1CCC(c2ccc(-n3ccnc3)cc2)=NN1
- cell viability (log2) [1]: inactive: 0.143
- cell viability (log2) [2]: inactive: 0.0315
- cell viability (log2) [3]: inactive: 0.00333
- cell viability (log2) [4]: inactive: 0.0434

Compound: CCNC(=O)N1CCN(CCCC(c2ccc(F)cc2)c2ccc(F)cc2)CC1
- cell viability (log2) [1]: inactive: 0.00858
- cell viability (log2) [2]: inactive: 0.124
- cell viability (log2) [3]: inactive: 0.161
- cell viability (log2) [4]: inactive: 0.112

Compound: Fc1ccc(C(OCCCc2cnc[nH]2)c2ccc(F)cc2)cc1
- cell viability (log2) [1]: inactive: 0.0882
- cell viability (log2) [2]: inactive: 0.119
- cell viability (log2) [3]: inactive: 0.204
- cell viability (log2) [4]: inactive: 0.117

Compound: CCC(=O)N1CCN(C(=O)c2ccccc2)CC1
- cell viability (log2) [1]: inactive: 0.205
- cell viability (log2) [2]: inactive: 0.0729
- cell viability (log2) [3]: inactive: 0.156
- cell viability (log2) [4]: inactive: 0.0547

Compound: CC(C)(C)Cn1c(N)nc2ccc(-c3[nH]c(C(C)(C)C)nc3-c3ccc(F)cc3)nc21
- cell viability (log2) [9]: inactive: -0.0145
- cell viability (log2) [10]: inactive: 0.0335
- cell viability (log2) [11]: inactive: 0.0265
- cell viability (log2) [12]: inactive: 0.0944
- cell viability (log2) [13]: inactive: -0.0762
- cell viability (log2) [14]: inactive: 0.0963
- cell viability (log2) [15]: inactive: -0.0688
- cell viability (log2) [16]: inactive: 0.0594
- cell viability (log2) [17]: inactive: -0.0599
- cell viability (log2) [18]: inactive: 0.0782
- cell viability (log2) [19]: inactive: -0.113
- cell viability (log2) [20]: inactive: 0.0298

Compound: CCCN[C@H]1CCc2nc(N)sc2C1
- cell viability (log2) [9]: inactive: -0.035
- cell viability (log2) [10]: inactive: 0.0257
- cell viability (log2) [11]: inactive: 0.0431
- cell viability (log2) [12]: inactive: 0.0549
- cell viability (log2) [13]: inactive: 0.0727
- cell viability (log2) [14]: inactive: 0.0205
- cell viability (log2) [15]: inactive: 0.00554
- cell viability (log2) [16]: inactive: 0.0468
- cell viability (log2) [17]: inactive: 0.0176
- cell viability (log2) [18]: inactive: 0.0127
- cell viability (log2) [19]: inactive: 0.142
- cell viability (log2) [20]: inactive: 0.0265

Compound: Cc1cc(=O)oc2cc(O)ccc12
- cell viability (log2) [5]: inactive: 0.129
- cell viability (log2) [6]: inactive: 0.0733
- cell viability (log2) [7]: inactive: 0.103
- cell viability (log2) [8]: inactive: -0.0344

Compound: CNC(=O)c1cc2c(cn1)[nH]c1ccccc12
- cell viability (log2) [1]: inactive: 0.143
- cell viability (log2) [2]: inactive: 0.0456
- cell viability (log2) [3]: inactive: 0.152
- cell viability (log2) [4]: inactive: 0.0711

Compound: COc1ccc(CN(CCN(C)C)c2ccccn2)cc1
- cell viability (log2) [5]: inactive: 0.113
- cell viability (log2) [6]: inactive: 0.0588
- cell viability (log2) [1]: inactive: 0.219
- cell viability (log2) [2]: inactive: 0.0808
- cell viability (log2) [7]: inactive: 0.0854
- cell viability (log2) [8]: inactive: 0.142
- cell viability (log2) [3]: inactive: 0.163
- cell viability (log2) [4]: inactive: 0.08

Compound: CCCNC(C)C(=O)Nc1ccccc1C (configuration not stated)
- cell viability (log2) [9]: inactive: 0.187
- cell viability (log2) [10]: inactive: 0.0075
- cell viability (log2) [5]: inactive: 0.071
- cell viability (log2) [6]: inactive: 0.00964
- cell viability (log2) [1]: inactive: 0.214
- cell viability (log2) [2]: inactive: 0.121
- cell viability (log2) [11]: inactive: 0.0836
- cell viability (log2) [12]: inactive: 0.0428
- cell viability (log2) [13]: inactive: 0.107
- cell viability (log2) [14]: inactive: 0.0769
- cell viability (log2) [7]: inactive: 0.133
- cell viability (log2) [8]: inactive: 0.124
- cell viability (log2) [3]: inactive: 0.311
- cell viability (log2) [4]: inactive: 0.0463
- cell viability (log2) [15]: inactive: 0.0516
- cell viability (log2) [16]: inactive: 0.0622
- cell viability (log2) [17]: inactive: 0.0873
- cell viability (log2) [18]: inactive: 0.0831
- cell viability (log2) [19]: inactive: 0.0931
- cell viability (log2) [20]: inactive: 0.0991
